Changes are numbered by the printed parent chain. Numbers in names are those of the source. These are yes or no findings as the source states them, for the method shown. For some of these results: Binding seen in cells or lysates may run through a third protein. For some of these results: Sequences can lack the tags named with a protein. Some binding calls cover weakened binding; strength is not graded here.

The target of assay [1] is T1, PotABC E173Q complex (E. coli K12) (UniProt P69874+P0AFK4+P0AFK6).
T1 sequence 1: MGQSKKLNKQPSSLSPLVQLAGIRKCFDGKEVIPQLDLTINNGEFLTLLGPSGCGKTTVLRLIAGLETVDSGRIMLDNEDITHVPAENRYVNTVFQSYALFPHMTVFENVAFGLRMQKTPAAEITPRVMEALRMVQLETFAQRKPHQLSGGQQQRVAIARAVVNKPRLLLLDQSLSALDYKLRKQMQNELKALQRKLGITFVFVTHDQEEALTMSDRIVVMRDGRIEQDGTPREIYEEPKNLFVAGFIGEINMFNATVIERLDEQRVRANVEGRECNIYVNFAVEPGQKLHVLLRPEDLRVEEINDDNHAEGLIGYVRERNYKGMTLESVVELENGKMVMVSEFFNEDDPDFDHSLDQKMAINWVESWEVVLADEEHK
T1 sequence 2: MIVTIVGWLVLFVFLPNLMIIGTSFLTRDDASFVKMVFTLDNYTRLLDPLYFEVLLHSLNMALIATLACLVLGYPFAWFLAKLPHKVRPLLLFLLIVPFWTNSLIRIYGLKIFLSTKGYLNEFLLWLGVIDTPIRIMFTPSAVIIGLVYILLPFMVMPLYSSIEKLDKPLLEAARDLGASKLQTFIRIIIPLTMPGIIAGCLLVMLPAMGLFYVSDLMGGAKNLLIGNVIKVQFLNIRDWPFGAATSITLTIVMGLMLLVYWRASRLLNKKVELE
T1 sequence 3: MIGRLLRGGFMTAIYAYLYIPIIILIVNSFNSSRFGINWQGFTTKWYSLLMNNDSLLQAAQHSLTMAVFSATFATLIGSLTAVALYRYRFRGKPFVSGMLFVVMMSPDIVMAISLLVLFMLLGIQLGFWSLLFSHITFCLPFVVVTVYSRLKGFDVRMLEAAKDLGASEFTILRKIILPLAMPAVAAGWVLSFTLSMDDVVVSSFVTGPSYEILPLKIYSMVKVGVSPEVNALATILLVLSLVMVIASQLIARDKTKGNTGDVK
In words: cryo-EM structure; PotD-PotABC E173Q complex formed with Spd, ATP and Mg2+, in LMNG; Spd-bound pretranslocation state (3.1 Å) and ATP-bound translocation intermediate state (3 Å; dataset 2 with 3 mM Fos-Choline-8); both purified.

The target of assay [2] is T1, PotABC E173Q complex (E. coli K12). The assay can be described thus: SEC; PotABC E173Q incubated with PotD with 2 mM ATP, Mg2+ and Spd at 4°C for 1 hour; Superose 6 10/30 in 20 mM tris-HCl pH 7.5, 150 mM NaCl, 0.001% LMNG; peak fractions checked by SDS-PAGE; both purified.
The target of assay [3] is T2, PotC (E. coli K12) (UniProt P0AFK6).
T2 sequence: T1 sequence 3
In words: cryo-EM structure; PotABC E173Q complex in detergent (LMNG), incubated with ATP, Mg2+ and Spd; apo and Spd-bound maps at 3.1 Å; both purified.

Assay [4] deals with T3, PotB (E. coli K12) (UniProt P0AFK4).
T3 sequence: T1 sequence 2
The assay is described as above.

Assay [5] addresses T2, PotC (E. coli K12). In words: cryo-EM structure; PotD-PotABC E173Q complex formed with Spd, ATP and Mg2+, in LMNG; Spd-bound pretranslocation state (3.1 Å) and ATP-bound translocation intermediate state (3 Å; dataset 2 with 3 mM Fos-Choline-8); both purified.
For assay [6], the target named is T3, PotB (E. coli K12). Described as above.
In assay [7] the target is T4, PotD (wild type), spermidine-binding protein (E. coli K12) (UniProt P0AFK9).
T4 sequence: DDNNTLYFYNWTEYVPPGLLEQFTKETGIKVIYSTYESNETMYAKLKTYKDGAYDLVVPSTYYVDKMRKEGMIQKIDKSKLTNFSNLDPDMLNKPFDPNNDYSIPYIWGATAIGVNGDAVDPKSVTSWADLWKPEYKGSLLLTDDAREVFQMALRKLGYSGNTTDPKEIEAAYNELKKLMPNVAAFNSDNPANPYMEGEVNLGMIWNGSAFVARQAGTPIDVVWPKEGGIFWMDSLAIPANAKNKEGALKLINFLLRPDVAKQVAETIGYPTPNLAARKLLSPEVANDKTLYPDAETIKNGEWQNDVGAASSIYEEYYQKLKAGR
In words: pull-down; entire potABCD operon expressed in E. coli with the hexahistidine tag on PotD; nickel-NTA affinity purification from the cleared lysate.

Assay [8] addresses T2, PotC (E. coli K12). In words: cryo-EM structure; wild-type PotABC complex reconstituted into MSP1E3D1/asolectin nanodiscs, with ATP, Mg2+ and Spd; map at 3.5 Å; both purified.
Assay [9] addresses T3, PotB (E. coli K12). The assay is described as above.

B1: PotD (wild type), spermidine-binding protein (protein, UniProt P0AFK9 24-348)
chain: T4 sequence
In the case of B1, the binding result in assay [1] and in [2] was “binds” in each case.

B2: PotD E220A/G221A/E222A triple mutant (protein, UniProt P0AFK9 24-348)
chain: T4 sequence with E197A, G198A, E199A
As for B2, the binding result in [2] was “binds weakly”.

B3: PotA E173Q (protein, UniProt P69874 1-378)
chain: T1 sequence 1
Consider B3, for which the binding result in the assay with PotC (E. coli K12) [3], with PotB (E. coli K12) [4], with PotC (E. coli K12) [5] and with PotB (E. coli K12) [6] was “binds” throughout.

B4: PotABC (wild type), co-expressed from the entire potABCD operon with the tag on PotD (complex, UniProt P69874 1-378; P0AFK4 1-275; P0AFK6 1-264)
chain 1: T1 sequence 1 with Q173E
chain 2: T1 sequence 2
chain 3: T1 sequence 3
For B4, the binding entry in assay [7] is listed as “no binding”.

B5: PotA (wild type) (protein, UniProt P69874 1-378)
chain: T1 sequence 1 with Q173E
Turning to B5, the binding result in the assay with PotC (E. coli K12) [8] and with PotB (E. coli K12) [9] was “binds” in each case.

B6: PotB (protein, UniProt P0AFK4 1-275)
chain: T1 sequence 2
For the molecule B6, the binding entry with PotC (E. coli K12) [3], with PotC (E. coli K12) [5] and with PotC (E. coli K12) [8] was “binds” throughout.

The record behind these values is PMC11414716.
